“Also recorded” adds a separate entry of the source. A number of entries come with more than one value. The other results are left out here. The rule behind the calls is not given here. There may be further records. Values given together differ for a reason that is not stated; dose, time, organism, isomer or construct need not be as stated for each record. Records carry a tag for their origin. The letters are not those of the source and start again with each entry. Counts like (3×) count equal records among those shown.
Test system: CCRIS mutagenicity, Ames/micronucleus/aberration tests
Test: CCRIS mutagenicity studies
[1] = Test System: AMES SALMONELLA TYPHIMURIUM, Strain/Indicator: TA100, Metabolic Activation: NONE, Method: PREINCUBATION

`Cc1cc2nc3c(=O)[nH]c(=O)nc-3n(C[C@H](O)[C@H](O)[C@H](O)CO)c2cc1C` was tested, and the mutagenic call (Test System: AMES SALMONELLA TYPHIMURIUM, Strain/Indicator: TA102, Metabolic Activation: NONE, Method: PREINCUBATION) was “inactive; negative [study A] and inactive; negative [study B] and active; positive [study B]”.
In the case of `CC(C)C#N`, the mutagenic call (End Point: In vitro chromosomal aberrations, Test System: Chinese hamster lung (CHL/IU) cells, Metabolic Activation: None) is reported as “inactive; negative. weak ploidy at highest dose only; also recorded: inactive; negative (2×)”, the mutagenic call (Test System: Ames Salmonella typhimurium, Strain/Indicator: TA98, Metabolic Activation: None, Method: Preincubation) is reported as “inactive; negative; also recorded: active; positive (results of 2 experiments)” and the mutagenic call (Test System: Ames Salmonella typhimurium, Strain/Indicator: TA98, Metabolic Activation: Rat, Liver, S9, Sodium phenobarbital and 5,6-benzoflavone (10%), Method: Preincubation) is reported as “inactive; negative; also recorded: active; positive (results of 2 experiments)”. For the same molecule, the mutagenic call (Test System: Ames Salmonella typhimurium, Strain/Indicator: TA1535, Metabolic Activation: Rat, Liver, S9, Sodium phenobarbital and 5,6-benzoflavone (10%), Method: Preincubation) was “active; positive; also recorded: inactive; negative (results of 2 experiments)” and the mutagenic call (Test System: Ames Salmonella typhimurium, Strain/Indicator: TA1537, Metabolic Activation: Rat, Liver, S9, Sodium phenobarbital and 5,6-benzoflavone (10%), Method: Preincubation) was “active; positive (2×); also recorded: active; positive (*growth inhibition observed)”.
With `Cc1c2c(cc3ccccc13)-c1ccccc1C1NC21` (stereo not given) the mutagenic call [1] was “active; positive and inactive; negative”.
With `Cl/C=C/CCl` the mutagenic call (End Point: IN VITRO CHROMOSOMAL ABERRATIONS, Test System: CHL CELLS, Metabolic Activation: NONE) was “active; positive (structural and ploidy changes); also recorded: inactive; negative”.
For `CCC(O)\C=C/C=C\C=C/C=C\C=O` (stereo not given), the mutagenic call [1] was “inactive; negative [0 to 10 µg/plate] and active; positive [0 to 100 µg/plate]”.
For `O=C1c2cccc(O)c2C(=O)c2c(O)cc(CO)cc21`, the mutagenic call (Test System: AMES SALMONELLA TYPHIMURIUM, Strain/Indicator: TA98, Metabolic Activation: NONE, Method: PREINCUBATION) was “inactive; negative [study A] and active; positive [study B]” and the mutagenic call (Test System: AMES SALMONELLA TYPHIMURIUM, Strain/Indicator: TA98, Metabolic Activation: RAT, LIVER, S-9, AROCLOR 1254, Method: STANDARD PLATE) was “inactive; negative [study A] and active; positive [study B]”.
`O=[N+]([O-])c1cc([As](=O)(O)O)ccc1O` was tested, and the mutagenic call (End Point: IN VITRO CHROMOSOMAL ABERRATIONS, Test System: CHO CELLS, Metabolic Activation: NONE) was “inactive; negative; testing limited by solubility of the chemical [study A]; also recorded: inactive; negative [study B]”.
With `c1ccc2c(c1)ccc1[nH]c3ccc4ccccc4c3c12` the mutagenic call (Test System: AMES SALMONELLA TYPHIMURIUM, Strain/Indicator: TA100, Metabolic Activation: RAT, LIVER, S-9, 3-METHYLCHOLANTHRENE, Method: STANDARD PLATE) was “inactive; negative [study A] and active; positive [study B]”, the mutagenic call (Test System: AMES SALMONELLA TYPHIMURIUM, Strain/Indicator: TA100, Metabolic Activation: RAT, LIVER, S-9, AROCLOR 1254, Method: STANDARD PLATE) was “active; positive [study A] and inactive; negative [study B]” and the mutagenic call (Test System: AMES SALMONELLA TYPHIMURIUM, Strain/Indicator: TM677, Method: PREINCUBATION) was “inactive; negative and active; positive”.

From PubChem BioAssay AID1259407 (Chemical Carcinogenesis Research Information System (CCRIS), 2018)
